# Experimental data from PubChem BioAssay AID652106 (National Center for Advancing Translational Sciences (NCATS), 2013).
# The whole screen tested about 370,000 compounds, of which about 500 (0.14%) were called active. The shares of active, inactive and inconclusive entries below differ from those in the screen. Calls come from the whole dose curve; as a rule, active = well fitted activation curve with a large enough effect; inconclusive = small, poorly fitted or top-dose-only effect; inactive = no such curve, though single readings can be large or run the other way. Potencies of inconclusive entries are left out as doubtful fits.
# Experiment: qHTS of alpha-syn Inhibitors; note: nearly all actives have a fitted effect of over 65% in size; for growth rescue (activation): % of control where 0% means no effect
# Conditions: Yeast expressing alpha-synuclein, BacTiter-Glo, 24 h; Potency: growth rescue unless noted; growth rescue (activation): at 46.1 µM (top of the series) unless noted
# In short: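 Readout is rescue of growth in alpha-synuclein-expressing yeast, so inhibitors of toxicity appear as activators. Growth after 24 hr at 30 deg C in galactose medium is quantified by luminescence.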
# Potency is the fitted concentration of half-maximal effect; tags give direction and shape of the fitted curve.
Compound,Potency,growth rescue (activation)
C=CCn1c(SCc2ccc(C(=O)O)cc2)nc2sc(C)c(C)c2c1=O,"inconclusive [activator, single point]",–
COc1ccc(NC(=O)C(c2cc3c(cc2[N+](=O)[O-])OCO3)N(C)C)cc1 (stereo unspecified),–,inactive: 1.13%
Cc1ccccc1C(=O)N1CCN(c2ncnc3c2cnn3-c2ccccc2)CC1,"inconclusive [activator, single point]",–
Cc1nc(N/N=C/c2ccccn2)sc1C,"inconclusive [activator, single point]",–
CCc1ccc(/C=C2/SC(N3CCOCC3)=NC2=O)cc1,–,inactive: -3.01%
COc1ccccc1CNc1nc(NCc2ccc3occc3c2)c2sccc2n1,"inconclusive [activator, single point]",–
Cc1ccc(Sc2ncnc3onc(C)c23)c(C)c1,"inconclusive [activator, single point]",–
CCCNC(=O)C1(C)CCN(C(=O)Cc2ccc(OC)c(OC)c2)C1 (stereo unspecified),"inconclusive [activator, full curve]",–
O=C(NC(=S)NCc1ccccc1)c1ccccc1,–,inactive: -1.3%
OC(c1cccc(OCc2ccccc2)c1)c1nnc(-c2ccccc2)o1 (stereo unspecified),"inconclusive [activator, single point]",–
Cc1ccnc(SCc2cc(=O)c(OC(=O)c3cccs3)co2)n1,"inconclusive [activator, single point]",–
CC(=O)c1cccc(-c2ccnc3c2CC(C(=O)Nc2ccc(F)c(Cl)c2)O3)c1 (stereo unspecified),"inconclusive [activator, single point]",–
COc1ccc(NC(=O)C2OCCc3ccccc32)c(OC)c1 (stereo unspecified),"inconclusive [activator, full curve]",–
Cc1c(C)n(CC(O)CN2C(=O)c3ccccc3S2(=O)=O)c2ccccc12 (stereo unspecified),"inconclusive [activator, single point]",–
Cc1ccc(N(C)C(=O)c2ccc3c(Cl)c4c(nc3c2)CCC4)cc1C,"inconclusive [activator, single point]",–
Cc1ccc(C)c(C(O)c2ncc(-c3ccc(Cl)cc3)[nH]2)c1 (stereo unspecified),"inconclusive [activator, single point]",–
O=C(CNC1=NCCS1)c1c[nH]c2ccccc12,–,inactive: 6.22%
CC(=O)[C@]1(O)Cc2c(O)c3c(c(O)c2[C@@H](O[C@H]2C[C@H](N)[C@H](O)[C@H](C)O2)C1)C(=O)c1ccccc1C3=O,"inconclusive [activator, single point]",–
CCOc1ccccc1C(=O)OCC(=O)Nc1nnc(-c2ccccc2)o1,"inconclusive [activator, single point]",–
CC(=O)Nc1ccc(N/C=C/C(=O)c2ccc(C)o2)cc1,"inconclusive [activator, partial curve]",–
CCN(C(=O)COC(=O)/C=C/c1ccc(Cl)c(Cl)c1)c1c(N)n(Cc2ccccc2)c(=O)[nH]c1=O,"inconclusive [activator, single point]",–
O=C(Nc1nnc(C2CC2)s1)c1cc(-c2ccccc2)nn1-c1ccccc1,"inconclusive [activator, partial curve]",–

Compound,Potency,growth rescue (activation)
C=CCNc1nc(-c2ccccn2)nnc1-c1ccccc1,"inconclusive [activator, single point]",–
CCN1C(=O)[C@H]2[C@@H](c3ccc(-c4ccc(Cl)c(Cl)c4)cc3)N3CCCC[C@@]3(C(=O)OC)[C@H]2C1=O,"inconclusive [activator, single point]",–
CNC(=S)N1CCN(c2c(F)cc3c(=O)c(C(=O)O)cn(C4CC4)c3c2OC)CC1C (stereo unspecified),–,inactive: -5.02%
Cc1ccc(C(=O)NCCCN2CCN(CCCNC(=O)c3ccc(C)cc3)CC2)cc1,"inconclusive [activator, single point]",–
N/C(Cc1ccc(Cl)cc1)=N\OC(=O)c1ccc2ccccc2c1,–,inactive: -57.8%
COCCNC(=O)C(c1ccc(C)o1)N(C(=O)c1snc(C(N)=O)c1N)c1ccc(C)cc1 (stereo unspecified),"inconclusive [activator, single point]",–
Cn1nc(-c2ccc(Cl)cc2)c2cc(C(=O)NCC3CCCO3)sc21 (stereo unspecified),"inconclusive [activator, single point]",–
Cc1cn2c(-c3ccc(Cl)cc3)nnc2s1,"inconclusive [activator, single point]",–
COc1ccccc1-c1noc(CCC(=O)Nc2ccccc2Cl)n1,"inconclusive [activator, single point]",–
Cc1cccc(C2N3CC4(C(C)C)CN2CC(C(C)C)(C3)C4=O)c1 (stereo unspecified),"inconclusive [activator, single point]",–
C[C@@H](C(=O)NCCc1ccccc1)N1C(=O)N2CCc3c([nH]c4ccccc34)[C@@]2(C)C1=O,"inconclusive [activator, single point]",–
Cc1ccccc1NC(=O)C1C2CCC(O2)C1C(=O)O (stereo unspecified),"inconclusive [activator, single point]",–
CNc1ccc(/C=C2\C=Cc3ccccc32)cc1Br,–,inactive: -1.4%
COc1ccccc1OCCSc1nc2ccccc2n1CCO,–,inactive: 0.775%
Cc1cccc(COC[C@H](Cc2ccccc2)N2CCN(C(=O)c3ccc(Cl)c(Cl)c3)CCC2=O)c1,"inconclusive [activator, full curve, poor fit]",–
C[C@H]1CN([C@@H](C)CO)C(=O)c2cc(-c3ccccc3F)cnc2O[C@H]1CN(C)C(=O)C1CCOCC1,"inconclusive [activator, single point]",–
Cc1ccc2cc(CN(Cc3ccco3)Cc3nnnn3Cc3ccco3)c(=O)[nH]c2c1,"inconclusive [activator, single point]",–
CN(C)CCOC(=O)c1ccc(COc2ccccc2Br)o1,"inconclusive [activator, single point]",–
CCC(=O)Oc1c(C(=O)CC)cc2c(C)cc(=O)oc2c1C,"inconclusive [activator, single point]",–
N#Cc1cc2c(nc1SCc1ccccc1)CCCCC2,–,inactive: -7.43%
COc1ccc(C2CC(=O)Nc3c2c(=O)nc2c(C)cccn32)cc1 (stereo unspecified),"inconclusive [activator, single point]",–
O=C(CSc1ccc2ccccc2c1)Nc1ccncc1,"inconclusive [activator, single point]",–

Compound,Potency,growth rescue (activation)
O=C(COC(=O)C1CCN(c2ccc(C(F)(F)F)cn2)CC1)NCCc1ccccc1,"inconclusive [activator, single point]",–
Cc1cc(OCc2cc(C(=O)NC(C)c3cnn(C)c3)no2)cc(C)c1Cl (stereo unspecified),"inconclusive [activator, single point]",–
Cn1c(=O)cc(N2CCN(C(=O)c3ccco3)CC2)[nH]c1=O,"inconclusive [activator, single point]",–
COc1ccc(N2CCN(c3nc4c(c(=O)n(C)c(=O)n4C)n3Cc3ccccc3)CC2)cc1,–,inactive: 14.8%
Cc1cccc(C)c1NC(=O)CN(C)C(=O)c1ccccc1Sc1ccccc1C#N,–,inactive: 0.605%
O=C1NC(C2CC3C=CC2C3)Nc2ccccc21 (stereo unspecified),"inconclusive [activator, single point]",–
COc1nccnc1NS(=O)(=O)c1ccc(NC(=S)NC(=O)c2ccccc2)cc1,–,inactive: -14.2%
Cc1ccc(CNC(=O)c2ccc(-c3nc(CN4CCc5ccccc54)c(C)o3)cc2)cc1,–,inactive: -0.352%
COC(=O)C1=CN(C(C)C)C=C(C(=O)OC)C1c1cccc(OC)c1,–,inactive: -0.75%
O=C(NCc1ccc(F)c(F)c1)c1ccc(-c2ccc(F)c(F)c2)c2ccoc12,–,inactive: -1.58%
COc1ccccc1N(CC(O)COc1ccc(C)cc1)S(=O)(=O)c1ccccc1 (stereo unspecified),"inconclusive [activator, single point]",–
O=C(c1ccc(Oc2ccc(Cl)cc2)c([N+](=O)[O-])c1)N1CCCC1,"inconclusive [activator, single point]",–
CC(=O)Oc1ccc2c(C)cc(=O)oc2c1,–,inactive: 2.99%
Cc1cccc(C)c1NC(=S)NC(=O)CCc1ccccc1,"inconclusive [activator, single point]",–
O=C(Nc1cccc(OC(F)(F)F)c1)C1Cc2c(-c3cccc(F)c3)ccnc2O1 (stereo unspecified),"inconclusive [activator, single point]",–
C#CCOCCOCCOCCNc1nc(N2CCN(C(=O)C([C@@H](C)CC)n3cc(C(N)COC(=O)C(F)(F)F)nn3)CC2)nc(N2CCN(C(=O)[C@H](CCCCN)n3cc(C(N)CC(C)C)nn3)CC2)n1 (stereo partly specified),"inconclusive [activator, single point]",–
COc1ccc(-n2nnc3c(=O)n(Cc4cccc(C)c4)cnc32)cc1,"inconclusive [activator, single point]",–
O=C1NCCN1CCNc1nc(NCc2ccccc2)nc2ccsc12,"inconclusive [activator, single point]",–
COc1ccccc1C(=O)NNC(=S)NC(=O)c1sc2ccccc2c1Cl,"inconclusive [activator, single point]",–
CC(=O)N/N=C\c1cccc(OC/C=C/c2ccccc2)c1,"inconclusive [activator, partial curve]",–
Cc1cccc(/C(N)=N/OC(=O)Cc2cccc3ccccc23)c1,–,inactive: -29.1%
Nc1c(C(=O)CSc2nccn2-c2ccc(Cl)cc2)c(=O)[nH]c(=O)n1C1CC1,"inconclusive [activator, single point]",–
